According to PubChem BioAssay AID886 (National Center for Advancing Translational Sciences (NCATS), 2007):
Hit rate of the full screen: of about 73,000 compounds, about 2,500 (3.4%) were called active. Inconclusive means that the source gave no clear call. Such entries were picked first, then a sample of the others. The call rests on the fitted dose curve; in most records, active means well fitted inhibition curve with a large enough effect; inconclusive means small, poorly fitted or top-dose-only effect; inactive means no such curve, though single readings can be large or run the other way. Potencies of inconclusive entries are doubtful fits and often do not repeat.

What follows are compounds tested against 3-hydroxyacyl-CoA dehydrogenase type-2 (Homo sapiens) (UniProt Q99714) (assay: qHTS Assay for Inhibitors of HADH2 (Hydroxyacyl-Coenzyme A Dehydrogenase, Type II)). Conditions: recombinant HADH2, NADH fluorescence, beta-hydroxybutyryl-CoA; activity change, negative = inhibition: at 57.1 µM (top of the series).
Chain of UniProt Q99714 (Q99714 whole entry, looked up): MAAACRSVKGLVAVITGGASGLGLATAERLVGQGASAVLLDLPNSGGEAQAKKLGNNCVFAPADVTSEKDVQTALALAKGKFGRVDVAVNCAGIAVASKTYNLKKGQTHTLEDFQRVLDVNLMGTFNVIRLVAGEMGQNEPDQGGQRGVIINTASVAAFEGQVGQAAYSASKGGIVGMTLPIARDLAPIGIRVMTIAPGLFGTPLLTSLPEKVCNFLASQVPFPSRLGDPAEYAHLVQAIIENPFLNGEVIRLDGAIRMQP
Chain of UniProt Q99714 (Q99714 whole entry, looked up): as above
Summary of the method: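 Buffer 100 mM Tris-HCl pH 9.0/0.01% Tween-20; HADH2 20 nM; NAD+ 1 mM; beta-hydroxybutyryl-CoA 90 uM (all final). 15 min cpd preincubation, RT.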
Further: nearly all actives have a fitted effect of over 60% in size.
On the % scale 0 is the no-effect control and ±100 the full control effect; potency means the concentration at half of the fitted maximal effect; tags describe the fitted curve by direction and shape.

SMILES | activity change, negative = inhibition | Potency
CC(C)Sc1nnc(NC(=O)C2CC2)s1 | inactive: -2.04% | 
CC1CC(C)CN(c2oc(-c3ccccc3Cl)nc2C#N)C1 (stereo not drawn) |  | active: 1.58 µM
COc1cc(C2C3=C(Nc4ncnn42)c2ccccc2CC3)cc(OC)c1OC (stereo not drawn) |  | inconclusive: 31.6 µM [inhibitor, single point]
Cc1c(C(=O)NCCC2=CCCCC2)oc2ccc(S(=O)(=O)N3CCC4(CC3)OCCO4)cc12 | inactive: -1.76% | 
O=S(=O)(Nc1nc2ccccc2nc1NCc1ccco1)c1ccc(Cl)cc1 |  | inconclusive: 3.98 µM [inhibitor, single point]
Cc1nc(-c2cccc(S(=O)(=O)N3CC(C)OC(C)C3)c2)cs1 (stereo not drawn) | inactive: -12.2% | 
Cc1cc(C(=O)N[C@H](c2ccccc2)[C@@]2(C)C[C@@H]2[C@@H](C)C(=O)Nc2ccc3ccccc3c2)n(C)n1 | inactive: 2.47% | 
COC(=O)C1=CO[C@@H](C)[C@H]2CN3CCc4c([nH]c5ccccc45)[C@@H]3C[C@H]12 |  | inactive
CSCCC=O | inactive: 0.263% | 
COc1cc(C2C3CN(C)CC=C3C(C#N)=C(N)C2(C#N)C#N)ccc1OC(C)C (stereo not drawn) |  | inconclusive: 39.8 µM [inhibitor, single point]
CCN(CC)C(=O)CSc1ccccc1N |  | inconclusive: 31.6 µM [inhibitor, single point]
COc1ccc2oc(=O)c(C(=O)N3CCN(c4ccccc4C)CC3)cc2c1 | inactive: 13% | 
COc1ccccc1C(=O)N1CCN(c2nc3cc(C)c(C)cc3cc2C#N)CC1 |  | inconclusive: 39.8 µM [inhibitor, single point]
COc1ccc(OC)c2c1CC(C)(C)NC2=O |  | active: 25.1 µM
CCOC(=O)c1[nH]c2ccc(OC)cc2c1NC(C)=O |  | inconclusive: 25.1 µM [inhibitor, single point]
COc1ccc(S(=O)(=O)Cc2ccc(C(=O)N3CCN(c4cc(Cl)ccc4C)CC3)o2)cc1 | inactive: -1.1% | 
c1ccc(-c2ccc(N3CCCC4(CCNCC4)C3)cc2)cc1 |  | inconclusive: 25.1 µM [inhibitor, single point]
O=c1oc2c(O)c(O)cc3c(=O)oc4c(O)c(O)cc1c4c23 |  | active: 0.251 µM
CC(=O)c1ccc(N2CCN(C(=O)c3cc(-c4ccc5c(c4)OCO5)nc4ccccc34)CC2)cc1 |  | inconclusive: 25.1 µM [inhibitor, single point]
O=C(CSc1ncn(-c2ccccc2)n1)Nc1ccc2c(c1)OCCO2 |  | inconclusive: 25.1 µM [inhibitor, single point]
CCOC(=O)CN1C(=O)C(=O)c2cccc(C)c21 |  | inconclusive: 15.8 µM [inhibitor, partial curve]
Cc1ccc(-c2noc(CN3CCN(Cc4ccccc4)CC3)n2)cc1 |  | inconclusive: 0.158 µM [inhibitor, single point]
CC(=O)N=c1sc2nc3ccccc3nc2n1N(C(C)=O)C(C)=O |  | active: 31.6 µM
COC(=O)c1ccccc1NC(=O)c1sc(=S)n(C)c1N |  | active: 2.51 µM

SMILES | activity change, negative = inhibition | Potency
N#Cc1cc2c(nc1SCc1nc3ccccc3[nH]1)CCC2 | inactive: -14.7% | 
O=c1[nH][nH]c(=S)c(=O)[nH]1 |  | active: 0.794 µM
c1coc(CNc2ncnc3nc[nH]c23)c1 |  | inactive
Cc1ccc2cc3cc(C(=O)NCCCN4CCc5ccccc5C4)oc3nc2c1 |  | inconclusive: 3.98 µM [inhibitor, full curve, poor fit]
COc1c(C)cccc1C(=O)Nc1cc(Cl)ccc1N1CCOCC1 |  | inconclusive: 39.8 µM [inhibitor, single point]
Cn1nnnc1SCc1csc(Nc2ccccc2)n1 |  | inconclusive: 15.8 µM [inhibitor, partial curve]
COc1ccc(OC)c(-c2cc(C(=O)Nc3cccc(Cl)c3)no2)c1 |  | active: 31.6 µM
N#CC1=C(N)Oc2c(sc3ccccc23)C1c1ccco1 (stereo not drawn) |  | inconclusive: 3.16 µM [inhibitor, single point]
CC1(C)CC(=O)C(C(c2ccco2)C2C(=O)CC(C)(C)CC2=O)C(=O)C1 |  | inconclusive: 25.1 µM [inhibitor, single point]
O=C(/C=C\c1ccc(O)cc1)c1ccc(O)cc1O |  | inconclusive: 10 µM [inhibitor, partial curve]
CC1=CC(C)(C)Nc2ccc(OC(=O)CN3C(=O)CCC3=O)cc21 |  | inconclusive: 25.1 µM [inhibitor, single point]
CCOc1ccc(Nc2oc(-c3cccs3)nc2C#N)cc1 |  | inconclusive: 31.6 µM [inhibitor, single point]
Cc1ccc(NC(=O)Cn2cnc3c(=O)n(C)c(=O)n(C)c32)c(C)c1 |  | inconclusive: 31.6 µM [inhibitor, single point]
O=C(Nc1cccc(C(=O)Nc2ccc(S(=O)(=O)O)c3cc(S(=O)(=O)O)cc(S(=O)(=O)O)c23)c1)Nc1cccc(C(=O)Nc2ccc(S(=O)(=O)O)c3cc(S(=O)(=O)O)cc(S(=O)(=O)O)c23)c1 |  | inconclusive: 25.1 µM [inhibitor, single point]
CCS(=O)(=O)N1CCCC(C(=O)NCc2cccc(OC)c2)C1 (stereo not drawn) | inactive: -1.13% | 
Cc1ccc(Cc2cnc(N)s2)o1 |  | inconclusive: 39.8 µM [inhibitor, single point]
CCOc1ccc(-c2cnc(SCC(N)=O)nc2N)cc1 |  | inconclusive: 39.8 µM [inhibitor, single point]
CCn1c(SCC(=O)N2CCCC2)nc2c1c(=O)n(C)c(=O)n2C | inactive: -3.93% | 
CCN1CCCC1CNc1ncnc2c1[nH]c1ccc(Cl)cc12 (stereo not drawn) | inactive: 3.05% | 
CCn1c(=N)c(S(=O)(=O)c2ccc(F)cc2)cc2c(=O)n3ccccc3nc21 |  | inconclusive: 0.794 µM [inhibitor, single point]
Cc1ccc(Cn2nnc3c(=O)n(CC(=O)NCc4ccc5c(c4)OCO5)cnc32)cc1 | inactive: 8.28% | 
CCc1nc(N2CCC(C)CC2)c2oc3ccccc3c2n1 |  | inconclusive: 39.8 µM [inhibitor, single point]
COc1ccccc1-c1cc(C(F)(F)F)nc(S(=O)(=O)CCCC(=O)Nc2cc(C)on2)n1 |  | active: 31.6 µM
COc1ccc2c(C)c(Cl)c(=O)oc2c1 |  | active: 10 µM
